Results reported in patent US20210188967A1 (Ablynx, published 2021).

Biological target: T1, human serum albumin (human, UniProt P02768)
T1 construct: Immobilised by amine coupling at approximately 3200 RU and used to capture the Nanobody constructs; also called HSA
Test: ProteOn SPR, capture on immobilised HSA
Protocol: NANOBODIES® were captured on human serum albumin and the binding of pre- existing antibodies on the captured NANOBODIES® was evaluated using the PROTEON™ XPR36 (Bio-Rad Laboratories, Inc.). PBS/TWEEN®(polyethylene glycol sorbitan monolaurate) (phosphate buffered saline, pH7.4, 0.005% TWEEN®20) was used as running buffer and the experiments were performed at 25° C. The ligand lanes of a PROTEON™ GLC Sensor Chip were activated with EDC/NHS (flow rate 30 μ/min) and HSA was injected at 10 μg/ml in PROTEON™ Acetate buffer pH4.5 (flow rate 100 μ/min) to render immobilization levels of approximately 3200 RU. After immobilization, surfaces were deactivated with ethanolamine HCl (flow rate 30 μ/min). NANOBODIES® were injected for 2 minutes at 45 μ/min over the HSA surface to render a NANOBODY® capture level of approximately 600 RU. The samples containing pre-existing antibodies were centrifuged for 2 minutes at 14,000rpm and supernatant was diluted 1:10 in PBS-TWEEN®20 (0.005%) before being injected for 2 minutes at 45 μ/min followed by a subsequent 400 seconds dissociation step. […] Binding levels of pre-existing antibodies were determined by setting report points at 125 seconds (5 seconds after end of association). Percentage reduction in pre-existing antibody binding was calculated relative to the binding levels at 125 seconds of a reference NANOBODY®. […]

T1 sequence (P02768 25-609 limits assumed): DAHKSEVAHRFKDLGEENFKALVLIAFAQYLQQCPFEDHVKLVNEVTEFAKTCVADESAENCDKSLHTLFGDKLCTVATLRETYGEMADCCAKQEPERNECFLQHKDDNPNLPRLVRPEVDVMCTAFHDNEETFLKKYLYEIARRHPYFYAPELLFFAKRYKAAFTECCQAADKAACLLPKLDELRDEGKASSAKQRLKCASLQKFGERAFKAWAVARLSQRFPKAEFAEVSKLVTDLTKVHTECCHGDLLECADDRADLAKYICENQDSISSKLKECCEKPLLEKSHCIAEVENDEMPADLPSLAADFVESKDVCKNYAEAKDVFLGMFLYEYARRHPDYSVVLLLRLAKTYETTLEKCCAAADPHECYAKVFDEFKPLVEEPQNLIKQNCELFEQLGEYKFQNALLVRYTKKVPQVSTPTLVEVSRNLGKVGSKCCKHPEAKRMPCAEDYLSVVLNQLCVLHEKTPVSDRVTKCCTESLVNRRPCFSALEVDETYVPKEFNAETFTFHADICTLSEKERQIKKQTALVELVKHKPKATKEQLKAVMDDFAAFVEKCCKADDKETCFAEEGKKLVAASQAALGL

Binder | binding result
SEQ ID NO:2 (invention) (VHH, Trivalent polypeptide: two anti-IL-23 Nanobodies and one anti-serum albumin Nanobody joined by 9GS linkers, with a C-terminal alanine; also called anti-IL 23 polypeptide of the invention) DVQLLESGGGVVQPGGSLRLSCAASGRIFSLPASGNIFNLLTIAWYRQAPGKGRELVATINSGSRTYYADSVKGRFTISRDNSKKTVYLQMNSLRPEDTALYYCQTSGSGSPNFWGQGTLVTVSSGGGGSGGGS[not shown - about 120 residues]GGGGSGGGSEVQLLESGGGVVQPGGSLRLSCAASGRTLSSYAMGWFRQAPGKGREFVARISQGGTAIYYADSVKGRFTISRDNSKNTLYLQMNSLRPEDTALYYCAKDPSPYYRGSAYLLSGSYDSWGQGTLVTVSSA | binds
SEQ ID NO:3 (invention) (VHH, Trivalent polypeptide: two anti-IL-23 Nanobodies and one anti-serum albumin Nanobody joined by 9GS linkers, with a C-terminal alanine; also called anti-IL 23 polypeptide of the invention) DVQLLESGGGVVQPGGSLRLSCAASGRIFSLPASGNIFNLLTIAWYRQAPGKGRELVATINSGSRTYYADSVKGRFTISRDNSKKTVYLQMNSLRPEDTALYYCQTSGSGSPNFWGQGTLVKVSSGGGGSGGGSEVQLVESGGGVVQPGNSLRLS[not shown - about 80 residues]SSQGTLVKVSSGGGGSGGGSEVQLLESGGGVVQPGGSLRLSCAASGRTLSSYAMGWFRQAPGKGREFVARISQGGTAIYYADSVKGRFTISRDNSKNTLYLQMNSLRPEDTALYYCAKDPSPYYRGSAYLLSGSYDSWGQGTLVKVSSA | binds
